# Measured values taken from the BET-seq Pho4 binding data (Le et al. 2018).
# The list shows a part of the results. Values were computed here from the reads of four pooled replicates and scatter widely.
# Target: T1, Pho4 (S. cerevisiae) (UniProt P07270)
# T1 sequence: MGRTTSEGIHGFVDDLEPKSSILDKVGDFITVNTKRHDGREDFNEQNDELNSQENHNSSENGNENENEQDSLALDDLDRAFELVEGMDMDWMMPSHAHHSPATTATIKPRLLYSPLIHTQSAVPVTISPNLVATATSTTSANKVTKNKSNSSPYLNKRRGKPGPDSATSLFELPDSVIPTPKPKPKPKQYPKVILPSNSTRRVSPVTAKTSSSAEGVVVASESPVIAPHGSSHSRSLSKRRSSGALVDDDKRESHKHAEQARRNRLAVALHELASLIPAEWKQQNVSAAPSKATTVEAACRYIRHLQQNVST
# Assay: relative binding free energy (BET-seq); higher = weaker binding
# Settings: reference: library average
row,Sequence,relative binding free energy
1,TGAGCCACGTGGGTTC,-0.05 kcal/mol
2,TTGACCACGTGTTATT,0.03 kcal/mol
3,CTGTGCACGTGTCTTG,0.06 kcal/mol
4,TCGGTCACGTGATTGT,0.23 kcal/mol
5,GGATACACGTGCGGTG,0.09 kcal/mol
6,ATTAGCACGTGGGTAA,-0.3 kcal/mol
7,GGAAACACGTGGGGTG,-0.11 kcal/mol
8,TTTCGCACGTGCGAGG,-0.07 kcal/mol
9,ATCTACACGTGGAGGG,0.07 kcal/mol
10,GTCAACACGTGGTTTG,0.17 kcal/mol
11,GTCAGCACGTGGTTTT,-0.17 kcal/mol
12,TGGCTCACGTGTTGTT,0.14 kcal/mol
13,ATAATCACGTGTTGTG,0.02 kcal/mol
14,GTTGTCACGTGAGGGC,0.31 kcal/mol
15,TGGGTCACGTGATAAA,0.35 kcal/mol
16,TTAATCACGTGGGTCG,-0.07 kcal/mol
17,CGGATCACGTGGGTTA,-0.06 kcal/mol
18,AAGCTCACGTGAGTGG,0.26 kcal/mol
19,TGGACCACGTGGTCGG,-0.06 kcal/mol
20,CTGATCACGTGGGTGC,0.08 kcal/mol
21,GTTGTCACGTGTAGTG,0.25 kcal/mol
22,AATGGCACGTGTGGTC,0.04 kcal/mol
23,AGTGCCACGTGGTTAT,-0.27 kcal/mol
24,TAGGCCACGTGAATTT,0.31 kcal/mol
25,ACGGACACGTGGGCGG,-0.17 kcal/mol
26,TGCATCACGTGTAGGA,0.23 kcal/mol

row,Sequence,relative binding free energy
1,TTTCTCACGTGTGAGA,0.36 kcal/mol
2,CATTACACGTGAGTGG,0.11 kcal/mol
3,TTTATCACGTGTGGGC,0.21 kcal/mol
4,CTGGTCACGTGATTTT,0.19 kcal/mol
5,TCTTGCACGTGAGTAT,0.21 kcal/mol
6,GTTATCACGTGGGTTC,0.06 kcal/mol
7,GGTTCCACGTGTTTGT,0.18 kcal/mol
8,TACGGCACGTGCGTGT,-0.21 kcal/mol
9,GTATGCACGTGTGTTT,0.1 kcal/mol
10,AGTATCACGTGTCGAG,0.23 kcal/mol
11,CTAGGCACGTGGAGAG,-0.16 kcal/mol
12,TGAAACACGTGTATGA,0.11 kcal/mol
13,GTGTACACGTGATGAT,0.04 kcal/mol
14,TTGTGCACGTGTTCAT,-0.02 kcal/mol
15,TCGTTCACGTGGCGTA,0.24 kcal/mol
16,GTTGGCACGTGTCGAG,-0.04 kcal/mol
17,TTGCTCACGTGTAAAG,0.24 kcal/mol
18,GTAGTCACGTGTTTAC,0.23 kcal/mol
19,TCGTTCACGTGATTTG,0.44 kcal/mol
20,AGTTGCACGTGGTAGT,-0.11 kcal/mol
21,AGTATCACGTGCCGGG,0.11 kcal/mol
22,CCGTGCACGTGGGGTT,-0.22 kcal/mol
23,TAATGCACGTGAATTG,0.22 kcal/mol
24,GTGGTCACGTGTAATT,0.34 kcal/mol
25,TTTTACACGTGTATCT,0.01 kcal/mol
26,TTGGACACGTGATGAT,0.18 kcal/mol

row,Sequence,relative binding free energy
1,AGGGCCACGTGTGGTG,-0.03 kcal/mol
2,CATGCCACGTGGGTGG,-0.12 kcal/mol
3,CGTTGCACGTGATAGA,0.04 kcal/mol
4,TAGTACACGTGAGTCG,0.41 kcal/mol
5,AGTATCACGTGGTGGC,0.03 kcal/mol
6,TATAGCACGTGGAGCT,0.08 kcal/mol
7,TGGGTCACGTGCCGGG,0.03 kcal/mol
8,TGTGGCACGTGTACCG,-0.18 kcal/mol
9,TTGCTCACGTGGTGTT,0.12 kcal/mol
10,GGTAACACGTGTCGGT,0.02 kcal/mol
11,TAGTTCACGTGGCGCT,0.21 kcal/mol
12,TGTAACACGTGTGATC,0.2 kcal/mol
13,TAACTCACGTGGGTGT,0.11 kcal/mol
14,AATCGCACGTGAGGTG,0.11 kcal/mol
15,GAGGTCACGTGAATGT,0.33 kcal/mol
16,TGTAGCACGTGGATTT,-0.04 kcal/mol
17,AAGGGCACGTGTATAT,0 kcal/mol
18,AAGCTCACGTGTGTTT,0.3 kcal/mol
19,GGCATCACGTGGGGAG,0.07 kcal/mol
20,GGGTCCACGTGTGTGC,0.1 kcal/mol
21,TTACGCACGTGTGATT,-0.19 kcal/mol
22,GTTTGCACGTGTGTTC,0.13 kcal/mol
23,GAGGTCACGTGTTTAT,0.26 kcal/mol
24,GTTGGCACGTGGTTAC,0.02 kcal/mol
25,TATATCACGTGGTTGG,0.1 kcal/mol
26,TTGTTCACGTGTATTG,0.29 kcal/mol

row,Sequence,relative binding free energy
1,GTGGGCACGTGACAGT,-0.03 kcal/mol
2,GGGGGCACGTGGCCGT,-0.2 kcal/mol
3,GTTCACACGTGGTATG,0.04 kcal/mol
4,ATTTGCACGTGACTGT,0 kcal/mol
5,TGGTGCACGTGGTTTC,-0.02 kcal/mol
6,GGAGTCACGTGTTTGG,0.27 kcal/mol
7,TATTACACGTGTGGCA,0.09 kcal/mol
8,TGTTACACGTGAAATG,0.15 kcal/mol
9,AAAGACACGTGCGTGG,-0.07 kcal/mol
10,TTGTGCACGTGTTCCG,-0.11 kcal/mol
11,AGTTACACGTGAGTAA,0.24 kcal/mol
12,CGTTGCACGTGTACGG,0.08 kcal/mol
13,AGTGCCACGTGGCGTG,-0.22 kcal/mol
14,CTAGGCACGTGGGAGC,-0.16 kcal/mol
15,TTTTTCACGTGTTTTT,0.35 kcal/mol
16,TTAGGCACGTGGAGCA,-0.14 kcal/mol
17,CACGTCACGTGTTGTG,0 kcal/mol
18,TGGATCACGTGATGCG,0.23 kcal/mol
19,AAGGTCACGTGATTTA,0.17 kcal/mol
20,TGTAGCACGTGTGGCC,-0.03 kcal/mol
21,AGAGCCACGTGAGGTT,0.18 kcal/mol
22,GGCGTCACGTGAGTAG,0.29 kcal/mol
23,GATTTCACGTGATTCT,0.35 kcal/mol
24,ATTTTCACGTGTGATA,0.31 kcal/mol
25,AACAGCACGTGGTGTT,-0.12 kcal/mol
26,TCATTCACGTGTGGTG,0.2 kcal/mol

row,Sequence,relative binding free energy
1,TTAAGCACGTGGGAGT,-0.19 kcal/mol
2,ATTTACACGTGAGTTA,0.29 kcal/mol
3,TGGATCACGTGTTTAT,0.16 kcal/mol
4,TGTGTCACGTGACGGG,0.16 kcal/mol
5,TTGTTCACGTGTCCGT,0.23 kcal/mol
6,CTGGTCACGTGGAGTC,0.13 kcal/mol
7,GGAACCACGTGTGGGT,0 kcal/mol
8,AGTGTCACGTGCTGGC,-0.1 kcal/mol
9,TGATTCACGTGTAGGG,0.37 kcal/mol
10,CAAGTCACGTGGTGGA,0.12 kcal/mol
11,CAAGGCACGTGAAGTT,0.14 kcal/mol
12,GGTAACACGTGAATGT,0.42 kcal/mol
13,TTTTTCACGTGTTGGG,0.27 kcal/mol
14,TAGTACACGTGTGAGG,0.11 kcal/mol
15,TTCGGCACGTGGCATG,-0.22 kcal/mol
16,GTGCGCACGTGATGGC,0.06 kcal/mol
17,GGTAACACGTGGTGGT,-0.01 kcal/mol
18,TGCGACACGTGGGAAT,-0.05 kcal/mol
19,TTAGGCACGTGTAAAT,0.09 kcal/mol
20,TGTTCCACGTGTATGT,-0.1 kcal/mol
21,TTGGCCACGTGGGGAT,-0.25 kcal/mol
22,GTAGACACGTGGAGGC,0 kcal/mol
23,ATGTGCACGTGGAGTG,-0.13 kcal/mol
24,TTTTCCACGTGGAAGG,0.17 kcal/mol
25,AATGGCACGTGGGGAT,-0.19 kcal/mol
26,TTCTACACGTGGTTGG,0.03 kcal/mol

row,Sequence,relative binding free energy
1,ATAGACACGTGGCGGT,-0.25 kcal/mol
2,TTCTTCACGTGCGTAT,0.38 kcal/mol
3,TTTGACACGTGATAAG,0.19 kcal/mol
4,TGGTTCACGTGTAGTA,0.26 kcal/mol
5,CTGTTCACGTGAGGGT,0.31 kcal/mol
6,ATATTCACGTGTAATA,0.14 kcal/mol
7,GGAGTCACGTGACGTG,0.22 kcal/mol
8,TCTGGCACGTGCGGAT,-0.13 kcal/mol
9,GTTTGCACGTGGACTT,-0.07 kcal/mol
10,TAGTACACGTGGCGTT,0.02 kcal/mol
11,GGATTCACGTGTAGTG,0.3 kcal/mol
12,GTTACCACGTGGTGTA,0.01 kcal/mol
13,CTGAACACGTGAGTGT,0.25 kcal/mol
14,GGGGACACGTGTAATA,0.13 kcal/mol
15,AGGACCACGTGGTTTG,-0.07 kcal/mol
16,AGTAACACGTGAGTTG,0.19 kcal/mol
17,TTAAACACGTGATGTC,0.24 kcal/mol
18,TTGAACACGTGTTGGC,0.2 kcal/mol
19,AATGGCACGTGACGGT,0.01 kcal/mol
20,AAGGGCACGTGTTGTT,-0.02 kcal/mol
21,CTTTTCACGTGTGTTT,0.33 kcal/mol
22,GCAGTCACGTGGGGGC,0 kcal/mol
23,GGAGGCACGTGCGGAT,-0.09 kcal/mol
24,TTGCGCACGTGTATGA,-0.18 kcal/mol
25,GTAAGCACGTGATTTA,0.03 kcal/mol
26,TACTTCACGTGTTTGA,0.17 kcal/mol

row,Sequence,relative binding free energy
1,TATAGCACGTGTGAGG,0.09 kcal/mol
2,GTAGACACGTGTTGTA,0.01 kcal/mol
3,TTCATCACGTGCGGGC,0.2 kcal/mol
4,GGGCACACGTGGGGTC,0 kcal/mol
5,TTGGACACGTGTGAAA,0.17 kcal/mol
6,TTTTACACGTGTAGTT,0.21 kcal/mol
7,GGTTTCACGTGGGAAG,0.39 kcal/mol
8,ATTTACACGTGTAAAG,0.14 kcal/mol
9,ACGAGCACGTGTTGTG,-0.03 kcal/mol
10,GTAAACACGTGGGGGC,-0.03 kcal/mol
11,GTTATCACGTGTTGTT,0.25 kcal/mol
12,TTGCGCACGTGGGTGC,-0.29 kcal/mol
13,GTGTACACGTGTAGGG,0.09 kcal/mol
14,ATAGTCACGTGATAGT,0.18 kcal/mol
15,AGTATCACGTGATTAA,0.24 kcal/mol
16,TTGTGCACGTGGATCA,-0.15 kcal/mol
17,TTCAGCACGTGGTGAT,-0.12 kcal/mol
18,AAGCACACGTGTGGGT,0.05 kcal/mol
19,TTTTACACGTGATGCT,0.16 kcal/mol
20,CGGGGCACGTGTGATA,-0.11 kcal/mol
21,GACGGCACGTGGAAGG,0.09 kcal/mol
22,GTTTACACGTGCTTTT,0.07 kcal/mol
23,CAGTGCACGTGTGCAG,0.04 kcal/mol
24,AGATTCACGTGGCTGG,0.14 kcal/mol
25,GTGTTCACGTGAGAGT,0.34 kcal/mol
26,AGATTCACGTGTTAAG,0.23 kcal/mol

row,Sequence,relative binding free energy
1,TGGTACACGTGGTATG,-0.14 kcal/mol
2,GACTTCACGTGGGAGG,0.17 kcal/mol
3,TAGTCCACGTGGTTAG,-0.03 kcal/mol
4,ATTTGCACGTGTGGGA,0.06 kcal/mol
5,AAATGCACGTGGAGTA,0.03 kcal/mol
6,ATGGGCACGTGGAAAG,0.01 kcal/mol
7,TCTGACACGTGTAAGT,0.16 kcal/mol
8,GGCTGCACGTGCGGGA,-0.03 kcal/mol
9,AGGCGCACGTGAGAGA,0.28 kcal/mol
10,CGTGTCACGTGGAGAT,0.2 kcal/mol
11,AACTTCACGTGTTATT,0.16 kcal/mol
12,TTGGGCACGTGTGCTC,-0.14 kcal/mol
13,TCTGTCACGTGTGGAG,0.15 kcal/mol
14,GGGAACACGTGTTTGG,0.01 kcal/mol
15,GGTGTCACGTGGGTAG,-0.04 kcal/mol
16,TGAGGCACGTGATTGC,0.05 kcal/mol
17,TATAACACGTGGTGGC,0.01 kcal/mol
18,TGGAGCACGTGTTTTA,-0.07 kcal/mol
19,TTTTCCACGTGGTTTC,0.17 kcal/mol
20,AGACTCACGTGGCGGG,0.17 kcal/mol
21,GGTGACACGTGTTGAG,0.16 kcal/mol
22,TGTTCCACGTGGTAAG,0.01 kcal/mol
23,CGGGGCACGTGTCAGG,-0.15 kcal/mol
24,CTGGTCACGTGTGAGT,0.04 kcal/mol
25,CGTGTCACGTGGCGAG,0.02 kcal/mol
26,TTAGCCACGTGTTTAT,-0.01 kcal/mol

row,Sequence,relative binding free energy
1,TTAAGCACGTGATTTG,0.07 kcal/mol
2,AATTACACGTGGATGG,0.23 kcal/mol
3,GACGGCACGTGGGTTG,-0.17 kcal/mol
4,AATTACACGTGTGTAT,0.12 kcal/mol
5,ATATACACGTGTTAGA,0.03 kcal/mol
6,TAAGTCACGTGGGGTT,-0.09 kcal/mol
7,TGGTGCACGTGTAGAA,0.1 kcal/mol
8,TGGTACACGTGAGTTG,0.15 kcal/mol
9,TATGCCACGTGTCGTG,-0.14 kcal/mol
10,AATTACACGTGGGATA,0.1 kcal/mol
11,AATGTCACGTGGTGAA,0.05 kcal/mol
12,ATCTTCACGTGTGGGG,0.18 kcal/mol
13,CTTTGCACGTGTATTT,0.09 kcal/mol
14,AGAGGCACGTGTTTAG,-0.09 kcal/mol
15,CCTTACACGTGTTGTG,0.11 kcal/mol
16,AGGAGCACGTGGTTGA,-0.06 kcal/mol
17,TGATTCACGTGAGAGC,0.48 kcal/mol
18,GGAAGCACGTGCAAGG,0.03 kcal/mol
19,ATGGTCACGTGCGTAT,-0.01 kcal/mol
20,TAGGACACGTGGGGCC,-0.09 kcal/mol
21,GGTGCCACGTGAGTAG,0.15 kcal/mol
22,ACTTACACGTGGTGTG,-0.01 kcal/mol
